Here are results for 45 sequences from the supplement of paper PMC11417369.

The list shows a part of the results.

In this experiment the test system is PfSIP2 AP2 domain 1 (GST-tagged). Briefly: gcPBM binding intensity (ln(normalized median fluorescence intensity)); higher = stronger DNA binding. The method in brief: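 GST-tagged P. falciparum DNA-binding domains, expressed in E. coli (about 25 μg on average), were applied for 1 h to an Agilent 4 × 180k array of primer-extended double-stranded 36-bp intergenic genomic probes plus negative controls. The binding buffer was 1× PBS with 1% milk, 0.2 mg/ml BSA, 0.5% salmon testes DNA and 0.03% Triton X-100. Bound protein was detected with Alexa488 anti-GST antibody and scanned at 488 nm. Binding intensity is the highest Masliner-normalised natural-log median intensity across replicate spots of either probe orientation.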
Consider “AACTTATTAAGCCCTCCACATTTCTCTACTACAACT [CACACA_negctrl_site1552]”, for which the “gcPBM binding intensity (ln)” value is 6.95.
The same measure for “TCTATTTTTCTAATTTGTACATAGCTTTGAGTTAGT [XGTACX_site8977]”: 7.05; for “AGATAAAATATATACACACACATAAATACGTACAAA [CACACA_site1086]”: 7.36; for “AACTTCTTTTTTATAACACACAAAATATATATACAA [CACACA_site282]”: 7.37.
The same measure for “AATAAATAAATAAGTACACACATATATATATATATA [CACACA_site284]”: 9; for “GGCATACACAGACACACACACACACCCACATATATA [CACACA_site591]”: 7.55; for “TAATTATCACATTGCACACACATTTCCTTTTACATT [CACACA_site3443]”: 7.26.
Turning to “AAAAGAATGAAACATAATAAATTACATTAAAATAAT [CACACA_negctrl_site897]”, the “gcPBM binding intensity (ln)” value was found to be 6.87.
In the case of “ATTTTTTTATTTTGTGCACACACATAAAAATATATA [CACACA_site762]”, the “gcPBM binding intensity (ln)” value turned out to be 9.99.
For “AAAGTTACATTCGACACACACATAACAACTAAATAA [CACACA_site3419]”, the “gcPBM binding intensity (ln)” value worked out at 7.2.
Regarding “TATTATAATTTTATATGTACACATATATAAATATAT [XGTACX_site4054]”, the “gcPBM binding intensity (ln)” value came out at 6.98.
In the case of “TTTTACATATATATATGTACGAAAATGAAAAGGTCA [XGTACX_site5576]”, the “gcPBM binding intensity (ln)” value was 7.36.
With “TTTATTTATTAATACACACACACACCCCCACAAAAT [CACACA_site240]”, the “gcPBM binding intensity (ln)” value came to 8.61.
As to “CTAAATAAAGTTAACACACACATAATATTTATATGT [CACACA_site6368]”, the “gcPBM binding intensity (ln)” value is 6.83.
Take “TACATAAACATTTATACACACATTAGATATACATAT [CACACA_site6329]”: the “gcPBM binding intensity (ln)” value amounted to 7.12.
Consider TCAAAGAGTAGAAAGGTGCTTATGAACGAGATAATT, for which the “gcPBM binding intensity (ln)” value came out at 7.54.
For “AACTAAATTTATAATTGTACATTAAAATATGTATTA [XGTACX_site479]”, the “gcPBM binding intensity (ln)” value amounted to 6.95.
With “ACATATACATTTATATGTACTCATTTATCTTATGTA [XGTACX_site6594]”, the “gcPBM binding intensity (ln)” value amounted to 7.08.
“TTTTTTAAAACTTCAAAAAGAGCACTTGAATTTTTT [GTGCAC_negctrl_site455]”: the “gcPBM binding intensity (ln)” value amounted to 7.03.
Regarding “AAATATTACATACACGCACACATTAATATATTTAAA [CACACA_site2603]”, the “gcPBM binding intensity (ln)” value amounted to 7.38.
The same measure for “ACAAGAACAGAACGTACACACACATATATATATATA [CACACA_site9143]”: 9.37.
For the sequence “ACCTACACAAGCATTAAACACACAAAAGGGATACTT [CACACA_site8273]”, the “gcPBM binding intensity (ln)” value was determined as 7.18.
On to “ACCTAATTTTTATATTGTACATAATATAATATATAT [XGTACX_site1715]”, for which the “gcPBM binding intensity (ln)” value was determined as 7.35.
With “CTCCACAAACAAATCGCACACCCAACCCAACATATA [CACACA_site2650]”, the “gcPBM binding intensity (ln)” value was found to be 7.32.
With “TATTATAATGACTATAGTACATAATATTATTTATAT [XGTACX_site1977]”, the “gcPBM binding intensity (ln)” value amounted to 6.94.
Turning to “ATAGAACTGAATAAATCTATAAATAAATATATATAT [GTGCAC_negctrl_site604]”, the “gcPBM binding intensity (ln)” value was 8.42.
For the sequence “TCATACCTACATAAAAAAAGGGAAACAAAATGTCAT [XGTACX_negctrl_site34]”, the “gcPBM binding intensity (ln)” value worked out at 6.75.
Consider “AATAAATATAAATACACACCCATATATATATATATA [CACACA_site5436]”, for which the “gcPBM binding intensity (ln)” value was 9.82.
In the case of “TTAAAAAAAAAAAAAAGTACACACTTATAAAATATT [XGTACX_site1630]”, the “gcPBM binding intensity (ln)” value stood at 7.3.
As for ACCAATAAATATTTGGTGCATACATATATATATATA, the “gcPBM binding intensity (ln)” value is 9.96.
As to “TTGTATCTTCATTTTATCAGAAAAAAAAAAAAAAAT [CACACA_negctrl_site775]”, the “gcPBM binding intensity (ln)” value was 6.95.
As to “ATATATATATATAGGGGTACTTAAATTTTACTAACC [XGTACX_site1832]”, the “gcPBM binding intensity (ln)” value stood at 9.3.
“ATTTTATTTATATACACACACATATATATATTATAT [CACACA_site822]”: the “gcPBM binding intensity (ln)” value amounted to 7.18.
The same measure for “AAAGGGTTACAAGAGGAACACACAAAAAAATAAATA [CACACA_site8406]”: 6.74; for “AATAAATAAATAAATTAATATATATATATATATAGA [CACACA_negctrl_site1661]”: 6.98.
On to “TTTTGCGAAAAAAGGTGTACTGTAAATATATTGAGG [XGTACX_site8941]”, for which the “gcPBM binding intensity (ln)” value is 7.25.
For “AGCACCCACCAACACACACACACACCCACCCACCGA [CACACA_site368]”, the “gcPBM binding intensity (ln)” value stood at 7.68.
The same measure for “AAATAAATAAATATACGTACATATATATAATATATA [XGTACX_site5124]”: 7.23.
For “TTTTTTTTTAATTACATAAAATAAAAATATTTCTAT [CACACA_negctrl_site584]”, the “gcPBM binding intensity (ln)” value was 6.65.
The value for “TTAATATGTTTAACCATTTTACATAAATTGATTTGT [CACACA_negctrl_site1100]” was 6.78.
For TTTTTTTTGATTTGTTTGCACTTATTTCCACAATAA, the “gcPBM binding intensity (ln)” value is 8.23.
The value for “TACGTAAATTTTAATACACACTATAGGATATTCTGC [CACACA_site5418]” was 6.74.
With “TATATATTTATATTTACACACAGTTACTATGTAGAT [CACACA_site3292]”, the “gcPBM binding intensity (ln)” value was 6.86.
For “ATTAAATGATCAAGGTGTACATTAACAAGAACTATA [XGTACX_site7022]”, the “gcPBM binding intensity (ln)” value amounted to 7.29.
On to “TGAATAAAAAAACCTAGTACTTAAATAAGTATATTT [XGTACX_site7690]”, for which the “gcPBM binding intensity (ln)” value stood at 6.67.
